Measured values taken from the supplement of paper PMC4604168 (melanoma cell lines).
The list shows a part of the results. Single values are uncertain, as repeats are few or missing.

What was measured:
Assay in all cases: cell count relative to DMSO control; melanoma cells; higher = more viable cells
Details in all cases: library dose: low library concentration; 72 h
WM115 = test system: WM115
WM1716 = test system: WM1716
WM1745 = test system: WM1745
WM3526 = test system: WM3526
WM3619 = test system: WM3619
WM451Lu = test system: WM451Lu
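Note: cell number obtained by counting DAPI-stained nuclei in high-throughput microscope images with image analysis software, screen run in 1,536-well plates.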

SMILES	cell count (WM115) [%]	cell count (WM1716) [%]	cell count (WM1745) [%]	cell count (WM3526) [%]	cell count (WM3619) [%]	cell count (WM451Lu) [%]
CC1(C)CCC(c2ccc(Cl)cc2)=C(CN2CCN(c3ccc(C(=O)NS(=O)(=O)c4ccc(N[C@H](CCN5CCOCC5)CSc5ccccc5)c(S(=O)(=O)C(F)(F)F)c4)cc3)CC2)C1 + COC(=O)c1sccc1S(=O)(=O)Nc1ccc(Nc2ccccc2)cc1OC [GSK0660] (first compound 0.4 µM, partner dose 1 µM)	82.4	74.2	9.69	102	62	82.1
O=C(/C=C/c1cccnc1)NCCCCC1CCN(C(=O)c2ccccc2)CC1 + CC1(C)CCC(c2ccc(Cl)cc2)=C(CN2CCN(c3ccc(C(=O)NS(=O)(=O)c4ccc(N[C@H](CCN5CCOCC5)CSc5ccccc5)c(S(=O)(=O)C(F)(F)F)c4)cc3)CC2)C1 [ABT263] (first compound 0.01 µM, partner dose 0.4 µM)	89.9	69.4	18.1	125	48.7	88.5
Cc1ccc(Nc2nccc(N(C)c3ccc4c(C)n(C)nc4c3)n2)cc1S(N)(=O)=O [Pazopanib] + CS(=O)(=O)c1ccc(C(=O)Nc2ccc(Cl)c(-c3ccccn3)c2)c(Cl)c1 [vismodegib] (first compound 0.4 µM, partner dose 1 µM)	100	82.9	105	94.6	91.9	81.5
O=C(/C=C/c1cccnc1)NCCCCC1CCN(C(=O)c2ccccc2)CC1 + O=C(O)c1ccc(-c2c[nH]c3ncc(-c4ccccc4)cc23)cc1C1CCCC1 [GSK650394] (first compound 0.01 µM, partner dose 0.16 µM)	79.4	95.2	88.8	88	82.4	92.8
O=C(/C=C/c1cccnc1)NCCCCC1CCN(C(=O)c2ccccc2)CC1 + C=CCNC1=C2C[C@@H](C)C[C@H](OC)[C@H](O)[C@@H](C)/C=C(\C)[C@H](OC(N)=O)[C@@H](OC)/C=C\C=C(/C)C(=O)NC(=CC1=O)C2=O [Tanespimycin] (first compound 0.01 µM, partner dose 0.002 µM)	90.6	110	90.6	94.1	81.8	119
CC1(C)CCC(c2ccc(Cl)cc2)=C(CN2CCN(c3ccc(C(=O)NS(=O)(=O)c4ccc(N[C@H](CCN5CCOCC5)CSc5ccccc5)c(S(=O)(=O)C(F)(F)F)c4)cc3)CC2)C1 + O=C1NC(=O)/C(=C/c2ccc(-c3ccc(F)cc3O)o2)S1 [AS252424] (first compound 0.4 µM, partner dose 1 µM)	78.1	63.1	8.42	85	65.1	86.5
Cc1ccc(Nc2nccc(N(C)c3ccc4c(C)n(C)nc4c3)n2)cc1S(N)(=O)=O [Pazopanib] + CC(=O)c1c(C)c2cnc(Nc3ccc(N4CCNCC4)cn3)nc2n(C2CCCC2)c1=O [palbociclib] (first compound 0.4 µM, partner dose 0.04 µM)	86	70.5	84.3	77.6	78.3	86.4
O=C(/C=C/c1cccnc1)NCCCCC1CCN(C(=O)c2ccccc2)CC1 + O=C(O)[C@@H]1[O][Sb](=[O])([O][Sb]2(=[O])[O][C@H]([C@H](O)CO)[C@H](O)[C@H](C(=O)O)[O]2)[O][C@H]([C@H](O)CO)[C@@H]1O [stibogluconate] (first compound 0.01 µM, partner dose 2 µM)	106	108	116	110	107	106
O=C(/C=C/c1cccnc1)NCCCCC1CCN(C(=O)c2ccccc2)CC1 + O=C(CCCCCCC(=O)Nc1ccccc1)NO [vorinostat] (first compound 0.01 µM, partner dose 0.08 µM)	76.8	98.8	91.7	97.6	86.9	78.4
CC1(C)CCC(c2ccc(Cl)cc2)=C(CN2CCN(c3ccc(C(=O)NS(=O)(=O)c4ccc(N[C@H](CCN5CCOCC5)CSc5ccccc5)c(S(=O)(=O)C(F)(F)F)c4)cc3)CC2)C1 + NC(=O)c1ccc(N(C(N)=O)c2c(F)cccc2F)nc1-c1ccc(F)cc1F [VX702] (first compound 0.4 µM, partner dose 0.4 µM)	91.8	75.4	11.7	84.6	74.2	85.3
Cc1ccc(Nc2nccc(N(C)c3ccc4c(C)n(C)nc4c3)n2)cc1S(N)(=O)=O [Pazopanib] + COc1cc2c(Oc3ccc4[nH]c(C)cc4c3F)ncnc2cc1OCCCN1CCCC1 [cediranib] (first compound 0.4 µM, partner dose 0.4 µM)	105	83.8	95.6	78.7	89.3	124
